{"source": "paper PMC4336329", "about": "(PLoS ONE, 2015)", "note": "The whole screen tested about 310,000 compounds, of which about 2,200 (0.71%) showed an effect of 50% or more. The effect is printed as a negative number. This is one part of the list.", "data": [{"molecular_target": "human ether-à-go-go-related gene (hERG) potassium channel (human, UniProt Q12809)", "sequence (Q12809 whole entry, looked up)": "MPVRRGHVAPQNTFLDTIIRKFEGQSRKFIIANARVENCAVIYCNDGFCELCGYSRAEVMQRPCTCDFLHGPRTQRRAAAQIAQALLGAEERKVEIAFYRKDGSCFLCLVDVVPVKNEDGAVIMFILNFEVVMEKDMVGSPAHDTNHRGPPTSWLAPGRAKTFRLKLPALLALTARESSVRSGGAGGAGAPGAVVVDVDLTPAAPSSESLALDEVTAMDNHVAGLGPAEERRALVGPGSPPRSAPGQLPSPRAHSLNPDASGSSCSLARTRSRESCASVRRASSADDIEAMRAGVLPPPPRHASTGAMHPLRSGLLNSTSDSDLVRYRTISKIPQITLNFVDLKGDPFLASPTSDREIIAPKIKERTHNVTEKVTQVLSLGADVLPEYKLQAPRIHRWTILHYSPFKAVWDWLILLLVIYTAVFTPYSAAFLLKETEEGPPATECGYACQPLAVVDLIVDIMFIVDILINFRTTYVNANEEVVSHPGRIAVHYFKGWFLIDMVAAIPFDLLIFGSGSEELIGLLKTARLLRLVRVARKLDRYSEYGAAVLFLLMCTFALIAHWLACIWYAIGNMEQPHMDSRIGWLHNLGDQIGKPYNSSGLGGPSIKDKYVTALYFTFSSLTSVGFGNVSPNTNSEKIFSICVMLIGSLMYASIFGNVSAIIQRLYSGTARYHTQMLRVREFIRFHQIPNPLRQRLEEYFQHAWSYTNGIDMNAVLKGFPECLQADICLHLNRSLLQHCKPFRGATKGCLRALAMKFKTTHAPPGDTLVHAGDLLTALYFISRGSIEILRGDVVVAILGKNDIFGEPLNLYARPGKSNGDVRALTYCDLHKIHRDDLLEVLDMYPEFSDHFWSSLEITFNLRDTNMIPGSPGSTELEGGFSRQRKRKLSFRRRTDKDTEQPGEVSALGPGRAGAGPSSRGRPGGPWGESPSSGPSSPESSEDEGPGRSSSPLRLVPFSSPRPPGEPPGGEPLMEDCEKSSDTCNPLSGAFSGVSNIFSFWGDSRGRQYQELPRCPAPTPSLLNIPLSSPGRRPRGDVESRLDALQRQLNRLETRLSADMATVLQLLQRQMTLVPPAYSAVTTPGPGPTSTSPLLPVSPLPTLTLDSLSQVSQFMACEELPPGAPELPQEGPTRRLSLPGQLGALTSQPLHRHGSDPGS", "assay": "primary screen, population patch clamp on CHO cells stably expressing hERG", "units": {"hERG current change (%, negative = inhibition) at 1uM": "%"}, "values": [{"smiles": "O=C(c1ccc(N2C(=O)CCC2=O)cc1)N1CCOCC1", "hERG current change (%, negative = inhibition) at 1uM": 11.4}, {"smiles": "CCOc1ccc(N(C(=O)c2snc(C(N)=O)c2N)C(CC)C(=O)NC2CCCC2)cc1", "note": "(centres unmarked)", "hERG current change (%, negative = inhibition) at 1uM": 13.7}, {"smiles": "Cc1ccc2c(C)c(C(=O)N(Cc3ccncc3)CC3CCCO3)oc2c1C", "note": "(centres unmarked)", "hERG current change (%, negative = inhibition) at 1uM": -14.2}, {"smiles": "CCOC(=O)c1ccc(NC(=O)CN2CCN(C(=O)c3ccco3)CC2)cc1", "hERG current change (%, negative = inhibition) at 1uM": -0.691}, {"smiles": "Cl.Fc1ccccc1CNCCC(Cc1ccccc1)c1ccc2c(c1)OCO2", "note": "(centres unmarked)", "hERG current change (%, negative = inhibition) at 1uM": 10.8}, {"smiles": "O=C(CSc1nnc(-c2ccncc2)n1Cc1ccco1)c1ccc(Cl)cc1", "hERG current change (%, negative = inhibition) at 1uM": -13.8}, {"smiles": "Nn1c(SCc2cccc(C(F)(F)F)c2)nnc1-c1ccco1", "hERG current change (%, negative = inhibition) at 1uM": 7.98}, {"smiles": "Cc1cc(C(F)F)n2nc(C(=O)Nc3cccc(C(F)(F)F)c3)nc2n1", "hERG current change (%, negative = inhibition) at 1uM": -7.29}, {"smiles": "O=C(N/N=C/C=C/c1ccco1)c1cccs1", "hERG current change (%, negative = inhibition) at 1uM": 1.38}, {"smiles": "COc1cc2ccccc2cc1C(=O)NC(=S)Nc1nnn(C)n1", "hERG current change (%, negative = inhibition) at 1uM": 12.8}, {"smiles": "Cc1cccc(CSc2nncc(=O)[nH]2)c1", "hERG current change (%, negative = inhibition) at 1uM": 11.9}, {"smiles": "CN1CCN(CC(=O)NC2CCCCC2)CC1.Cl", "hERG current change (%, negative = inhibition) at 1uM": 16.3}, {"smiles": "COCCn1c(=S)[nH]c2cc(C(=O)N3CCN(Cc4ccc5c(c4)OCO5)CC3)ccc2c1=O", "hERG current change (%, negative = inhibition) at 1uM": -3.26}, {"smiles": "CCN(CC)S(=O)(=O)c1cc(C(=O)OCC(=O)Nc2cccc(Br)c2)ccc1F", "hERG current change (%, negative = inhibition) at 1uM": 16.5}, {"smiles": "CC(=O)Oc1ccc(N2C(=O)C3C4C=CC(CC4)C3C2=O)cc1[N+](=O)[O-]", "note": "(centres unmarked)", "hERG current change (%, negative = inhibition) at 1uM": 7.49}, {"smiles": "COC(=O)c1[nH]c2cc(OC)ccc2c1NC(=O)CCN1CCN(c2ccccc2)CC1", "hERG current change (%, negative = inhibition) at 1uM": -26.2}, {"smiles": "Cc1cc(C)c(-n2c(SCC(=O)N3CCOCC3)n[nH]c2=O)c(C)c1", "hERG current change (%, negative = inhibition) at 1uM": 19.1}, {"smiles": "CN1CCN(Cc2cc(=O)oc3ccc(Cl)cc23)CC1", "hERG current change (%, negative = inhibition) at 1uM": 8.31}, {"smiles": "C=CCNC(=O)N1CCCC(C(=O)c2cccc(Cl)c2)C1", "note": "(centres unmarked)", "hERG current change (%, negative = inhibition) at 1uM": 9}, {"smiles": "COc1ccc(C(=O)Nc2ccc(S(=O)(=O)NC(C)C)cc2)cc1", "hERG current change (%, negative = inhibition) at 1uM": -6.15}, {"smiles": "CN(C)C(CNC(=O)CCNC(=O)c1ccc(Cl)cc1)c1ccco1", "note": "(centres unmarked)", "hERG current change (%, negative = inhibition) at 1uM": 0.689}, {"smiles": "N#Cc1c(/N=C/C=C/c2ccccc2)sc2c1CCCC2", "hERG current change (%, negative = inhibition) at 1uM": -3.53}, {"smiles": "O=C(Cn1ccc2ccccc2c1=O)N1CCN(Cc2ccc3c(c2)OCO3)CC1", "hERG current change (%, negative = inhibition) at 1uM": 0.0311}, {"smiles": "Cc1cc(C(=O)NNC(=O)c2ccc(NC(=O)CC#N)cc2)c(C)o1", "hERG current change (%, negative = inhibition) at 1uM": 16.7}, {"smiles": "Cc1ccc(C(=O)NC(=C(Cl)Cl)S(=O)(=O)c2ccc(Cl)cc2)cc1", "hERG current change (%, negative = inhibition) at 1uM": 16.5}, {"smiles": "COc1nccnc1NS(=O)(=O)c1ccc(NC(=S)NC(=O)c2ccccc2F)cc1", "hERG current change (%, negative = inhibition) at 1uM": 5.05}, {"smiles": "Cc1ccc(NC(=O)c2ccccc2NC(=O)Cc2ccccc2)cc1", "hERG current change (%, negative = inhibition) at 1uM": 3.03}, {"smiles": "COc1c(F)cc2[nH]c3c(c2c1F)CCNC3=O", "hERG current change (%, negative = inhibition) at 1uM": 9.79}, {"smiles": "CCN(Cc1ccncc1)Cc1ccc(OC)cc1OC.O=C(O)C(=O)O", "hERG current change (%, negative = inhibition) at 1uM": -4.15}, {"smiles": "CCCCn1c(=O)c(C(=O)c2ccccc2)nc2ccccc21", "hERG current change (%, negative = inhibition) at 1uM": 5.56}, {"smiles": "CCN(Cc1ccncc1)C(=O)c1cccc(S(=O)(=O)N2CCOCC2)c1", "hERG current change (%, negative = inhibition) at 1uM": 1.08}, {"smiles": "COc1cc(NC(=O)c2ccc(S(=O)(=O)N(C)C)cc2)cc(OC)c1OC", "hERG current change (%, negative = inhibition) at 1uM": 9.76}, {"smiles": "Cc1cc(=O)n(CCCc2ccccc2)[nH]1", "hERG current change (%, negative = inhibition) at 1uM": 8.75}, {"smiles": "Cc1ccc(C)c(CN2CCCN(C(=O)Cn3ncc4c3-c3ccccc3OC4)C2)c1", "hERG current change (%, negative = inhibition) at 1uM": 11.6}, {"smiles": "CCOc1cc(/C=N/NC(=O)CCn2nc(C)cc2C)ccc1O", "hERG current change (%, negative = inhibition) at 1uM": 14.5}, {"smiles": "CN1Cc2cc(C(=O)c3ccccc3O)cnc2NC1=O", "hERG current change (%, negative = inhibition) at 1uM": 2.97}, {"smiles": "Cc1nn(Cc2ccccc2)c(Cl)c1/C=C/C(=O)OC(C(=O)NC(N)=O)C(C)C", "note": "(centres unmarked)", "hERG current change (%, negative = inhibition) at 1uM": 12.7}, {"smiles": "Cn1nnc(NC(=O)c2ccc(Br)o2)n1", "hERG current change (%, negative = inhibition) at 1uM": 18.2}, {"smiles": "O=C(Nc1cc(-c2nc3ncccc3o2)ccc1Cl)c1cccs1", "hERG current change (%, negative = inhibition) at 1uM": -14.4}, {"smiles": "CC(=O)N1CCc2cc(S(=O)(=O)CCC(=O)N(C)c3cc(C)ccc3C)ccc21", "hERG current change (%, negative = inhibition) at 1uM": 16}, {"smiles": "Cc1nc(NC(=O)C2CC2)sc1C", "hERG current change (%, negative = inhibition) at 1uM": 0.432}, {"smiles": "CCCC1=Nc2cc(C(=O)N3CCN(c4ccccn4)CC3)ccc2Sc2ccc(C)cc21", "hERG current change (%, negative = inhibition) at 1uM": 14.2}, {"smiles": "CCCCCCn1c(COc2ccccc2F)nnc1SCC(=O)c1c(N)n(C)c(=O)n(C)c1=O", "hERG current change (%, negative = inhibition) at 1uM": 8.13}, {"smiles": "Cc1ccc(NS(=O)(=O)c2ccc(-n3cccn3)cc2)cc1F", "hERG current change (%, negative = inhibition) at 1uM": 15.7}]}]}
